Measurements reported in PubChem BioAssay AID2060620 (Molecular Pharmacology Branch, DTP, NCI, 2025).
Not every entry of the source has a single result; some have several. This is not the full list of results. An entry can have further records. Values that stand side by side are repeated measurements in other runs, samples, wells, individuals or studies.

Tested on: 328373-195-R-J1-PDC complex spheroids, viability % test/control
Test: Anticancer human tumor 328373-195-R-J1-PDC patient-derived head and neck squamous carcinoma cell line growth inhibition [CLK]
Conditions: for viability, T/C: stronger effect = lower value
Excerpt: A high-throughput screen of multi-cell type tumor spheroids was designed to identify active combinations of […] and targeted small molecules. Complex spheroids include a stromal component modeled by human endothelial cells (HUVEC) and fibroblasts modeled by human mesenchymal stem cells (MSCs). The concentration ranges selected for each drug and investigational agent were based upon clinically achievable concentrations if the clinical Cmax of the agent was known.
Compounds. The drugs and investigational agents: cirtuvivint (SM08502; NSC835563), CC-671 (NSC850746), vemurafenib (NSC761431), tapotoclax (NSC804041), sotorasib (NSC818433), adagrasib (NSC831453), MRTX-1133 (NSC836407), BAY2416964 (NSC825713), copanlisib (NSC816437), inavolisib (NSC800729), abemaciclib (NSC768073), osimertinib (NSC779217), entinostat (NSC756642), eltanexor (KPT-8602, NSC794443), venetoclax (NSC766270), ceralasertib (NSC777638), bortezomib (NSC756655), olaparib (NSC753686), talazoparib (NSC767125), alisertib (NSC759677), peposertib (NSC802822), gemcitabine (NSC613327), 5-fluorouracil (NSC19893), SN-38 (NSC673596), oxaliplatin (NSC266046), paclitaxel (NSC125973), and doxorubicin (NSC123127), were obtained from the National Cancer Institute (NCI) Developmental Therapeutics Program Chemical Repository. The FDA-approved anticancer drug set is available from the Developmental Therapeutics Program at https://dtp.cancer.gov/organization/dscb/obtaining/available plates.htm. […] The stock solutions were prepared in dimethyl sulfoxide (DMSO, Sigma-Aldrich, St. Louis, MO, cat. D2650), except for the platinum complexes which were prepared in saline (Quality Biological, Gaithersburg, MD, cat. 114-055-101), at 800-fold the tested concentration and stored at -70 degrees C prior to their use. All drugs and investigational agents were tested over a range starting from a high concentration at or near the clinical Cmax and decreasing in half-log increments. If the clinical Cmax for an agent had not been determined, the highest concentration tested was 10 microM.
Cell Culture. […]
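Further: spheroids exposed to the agents for 7 days.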

Structure (SMILES) | viability, T/C (compound alone 0.0316 µM) | IC50 (compound alone, run of 08/15/2023) | viability, T/C (compound alone 10 µM)
CNC(=O)c1ccc(Nc2nc(OC3CCCC3)c3c(-c4ccc5nc(C)oc5c4)c[nH]c3n2)c(OC)c1 | 51.8, 47.5, 67.8, 75.1, 55.5, 58.5, 60, 64.7, 62.7, 57.6, 72.7, 66.7% | 45.4 nM, 38.2 nM, 33.3 nM, < 31.6 nM, 49.8 nM, 36.6 nM, 39.2 nM, 40 nM, 43.7 nM, 42.4 nM, 48.4 nM, 45.6 nM | –
COC1C=CCC(C)C(C)S(=O)(=O)NC(=O)c2ccc3c(c2)N(CC2CCC21)CC1(CCCc2cc(Cl)ccc21)CO3 (stereo not drawn) | – | – | 45.4% and 2.48%
